Assay results taken from PubChem BioAssay (NCATS).
This is one part of the list. Further columns of the screen follow, without active or inactive calls. Words in brackets tell the shape of the fitted curve; partial curves, single points and poor fits give uncertain potencies.

assay: qHTS drug screen for cell cycle checkpoint inhibitors in PARPi-resistant BRCA-mutant ovarian cancer cell lines. (AID 1963452); details: PEO1/OlaR viability, CellTiter-Glo luminescence, 96 h; measured here: PEO1 parental viability
Method in brief: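 PEO1, PEO4 and PEO1/OlaR ovarian cancer cells, 600 per well, exposed 96 h at 37C to a dilution series. Viability read by CellTiter-Glo luminescence, normalized to DMSO and empty wells; activity summarized as Z-AUC.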
Tags tell the direction and shape of the fitted curve.

Compound	AC50
Cc1ccc(NC(=O)NCc2ccc3c(c2)CN(C2CCC(=O)NC2=O)C3=O)cc1Cl (stereo not given)	0.0309 µM [falling, full curve]
COc1ccc(Cl)c(Nc2ncnc3cc(OCC4CCN(C)CC4)c(OC)cc23)c1	15.5 µM [falling, single point]
CC(C)(C)c1cc(C(=O)O)c(NC(=O)Nc2ccc3[nH]ncc3c2)s1	21.9 µM [rising, single point]
O=C(O)c1nc(=O)[nH]c(=O)[nH]1	0.0239 µM [falling, full curve, poor fit]
C=C1c2cccc(O)c2C(O)=C2C(=O)[C@@]3(O)C(O)=C(C(N)=O)C(=O)[C@@H](N(C)C)[C@@H]3[C@@H](O)[C@H]12	24.5 µM [falling, single point]
CONC(=O)Nc1ccc(-c2sc3c(c2CN(C)Cc2ccccc2)c(=O)n(-c2ccccc2)c(=O)n3Cc2c(F)cccc2F)cc1	13.8 µM [falling, partial curve, poor fit]
CNC(=O)c1cc(Oc2ccc3nc(N[C@@H]4CCCC[C@H]4O)sc3c2)ccn1	21.9 µM [falling, partial curve, poor fit]
CCO[C@@H]1OC(=O)C[C@@H]1NC(=O)[C@@H]1CCCN2C(=O)CC[C@H](NC(=O)c3nccc4ccccc34)C(=O)N12	17.4 µM [rising, partial curve, poor fit]
NC(=O)C1CCCc2c1[nH]c1ccc(Cl)cc21 (stereo not given)	0.0195 µM [rising, full curve, poor fit]
CO[C@H]1C[C@@H]2CC[C@@H](C)[C@@](O)(O2)C(=O)C(=O)N2CCCC[C@H]2C(=O)O[C@H]([C@H](C)C[C@@H]2CC[C@@H](OC(=O)C(C)(CO)CO)[C@H](OC)C2)CC(=O)[C@H](C)/C=C(\C)[C@@H](O)[C@@H](OC)C(=O)[C@H](C)C[C@H](C)/C=C/C=C/C=C/1C	0.0095 µM [falling, full curve]
C=C[C@@H]1CN2CCC1C[C@H]2[C@H](O)c1ccnc2ccc(OC)cc12 (stereo not given in full)	13.8 µM [falling, partial curve, poor fit]
CCCC(CCC)C(=O)Nc1ccn([C@@H]2O[C@H](CO)[C@@H](O)C2(F)F)c(=O)n1	1.1 µM [falling, full curve]
O=C(O)C1=CO[C@@H](O[C@@H]2O[C@H](CO)[C@@H](O)[C@H](O)[C@H]2O)[C@@H]2C(CO)=CC[C@H]12	0.616 µM [rising, full curve, poor fit]
COCCOc1ccc(N2CCN(CCn3ncc4c3nc(N)n3nc(-c5ccco5)nc43)CC2)cc1	6.16 µM [rising, partial curve]
Cc1ccccc1C(C(=O)NC1CCCCC1)N(C(=O)CNc1ccc(C#N)cc1)c1cccc(F)c1 (stereo not given)	21.9 µM [rising, single point]
CCCCC[C@H](O)/C=C/[C@H]1[C@H](O)CC(=O)[C@@H]1CCCCCCC(=O)O	0.692 µM [falling, partial curve, poor fit]
CC1=C(C)C(=O)C(C(CCCCCC(=O)O)c2ccccc2)=C(C)C1=O (stereo not given)	0.871 µM [rising, partial curve, poor fit]
CC(=O)C1CCC2C3CCC4=CC(=O)CCC4(C)C3CCC12C (stereo not given)	12.3 µM [falling, partial curve]
CC1CCC(n2c3cnccc3c3cnc(Nc4ccc5c(n4)CCN(C(=O)CO)C5)nc32)CC1 (stereo not given)	1.12 µM [rising, partial curve, poor fit]

same assay, conditions: PEO1/OlaR viability, CellTiter-Glo luminescence, 96 h; measured here: PEO4 viability

Compound	AC50
CN(C)CCOc1ccc(-c2nc(-c3ccc4c(c3)CC/C4=N\O)c(-c3ccncc3)[nH]2)cc1	15.5 µM [falling, single point]
NS(=O)(=O)c1ccc(Cc2c(-c3cccc(-c4ccccc4)c3)nn(-c3nc(C(=O)O)cs3)c2CC2CC2)cc1	17.4 µM [falling, single point]
Cc1nn(C)c(COc2ccc(N3CCN(S(=O)(=O)N(C)C)CC3)cc2)c1-c1cccc2c(CCCOc3cccc4ccccc34)c(C(=O)O)n(CCN3CCOCC3)c12	3.47 µM [falling, full curve, poor fit]
C/C=C/C/C=C/CCC(=O)[C@H]1O[C@H]1C(N)=O	24.5 µM [falling, single point]
Nc1nc(N)nc(-c2cc(Cl)ccc2Cl)n1	9.77 µM [rising, partial curve, poor fit]
CC1(C)SCCN(S(=O)(=O)c2ccc(OCC#CCO)cc2)[C@H]1C(=O)NO	0.389 µM [falling, partial curve, poor fit]
O=C(C1CC1)N1CC[C@@H](Cc2n[nH]c(=O)n2-c2ccc(-c3ccc4occc4c3)cc2)C1	17.4 µM [falling, partial curve, poor fit]
CS(=O)(=O)c1ccc(-c2nnc(/C=C/c3nnc(-c4ccc(C#N)cc4)o3)n2-c2ccccc2Cl)nc1	15.5 µM [falling, single point]
Cn1cc(-c2ccc(S(=O)(=O)n3ccc(/C=C/C(=O)Nc4ccccc4N)c3)cc2)cn1	0.0098 µM [falling, full curve, poor fit]
C[C@@H]1CC(=O)Nc2cccc(-c3ccc4c(c3)c(-c3cnn(C)c3)nn4C)c2N1	7.76 µM [falling, partial curve]
Cc1ccc(NC(=O)[C@H]2CCCN(C(=O)c3c(C)cccc3F)[C@H]2c2ccc(NC3CCCC3)cc2)cc1C(F)(F)F	17.4 µM [falling, partial curve, poor fit]
O=C(O)c1ccc(O)c2ncccc12	27.5 µM [falling, single point]
O=C(O)c1cn(-c2ccc(F)cc2)c2cc(N3CCNCC3)c(F)cc2c1=O	21.9 µM [falling, single point]
CCNCc1nc2c(N)nc3ccccc3c2n1CC(C)(C)O	13.8 µM [falling, partial curve]
O=C(NCc1ccccc1)[C@H](Cc1ccccc1)NC(=O)[C@H]1O[C@@H]1C(=O)NCCc1ccc(O)cc1	24.5 µM [falling, single point]
CC[C@H](NC(=O)[C@H](CS(=O)(=O)CC1CC1)N[C@@H](c1ccc(F)cc1)C(F)(F)F)C(=O)C(=O)NC1CC1	12.3 µM [rising, partial curve, poor fit]
CC1=C2C[C@H]3[C@@H](CC[C@@H]4C[C@H](NS(C)(=O)=O)CC[C@@]43C)[C@@H]2CC[C@@]2(C1)O[C@@H]1C[C@H](C)CN[C@H]1[C@H]2C	17.4 µM [falling, partial curve]
CN1C2CCC1CC(OC(=O)C(CO)c1ccccc1)C2 (stereo not given)	0.0174 µM [falling, full curve, poor fit]
O=C(O)CSCC(=O)NC1CCSC1=O (stereo not given)	12.3 µM [rising, partial curve, poor fit]
CN(C)CCOc1cc(-c2cn[nH]c2)ccc1NC(=O)C1COc2ccccc2O1 (stereo not given)	2.19 µM [falling, partial curve, poor fit]
CC(=O)NCCCS(=O)(=O)O	2.68 µM [rising, partial curve, poor fit]
